# Laboratory results: article PMC4336329 (PLoS ONE, 2015)
# In all, about 310,000 compounds went through this assay and about 2,200 (0.71%) showed an effect of 50% or more. Effects have a minus sign here. The list shows a part of the results.
# Biological target: human ether-à-go-go-related gene (hERG) potassium channel (human, UniProt Q12809)
# Test: primary screen, population patch clamp on CHO cells stably expressing hERG
# Chain of human ether-à-go-go-related gene (hERG) potassium channel (Q12809 whole entry, looked up): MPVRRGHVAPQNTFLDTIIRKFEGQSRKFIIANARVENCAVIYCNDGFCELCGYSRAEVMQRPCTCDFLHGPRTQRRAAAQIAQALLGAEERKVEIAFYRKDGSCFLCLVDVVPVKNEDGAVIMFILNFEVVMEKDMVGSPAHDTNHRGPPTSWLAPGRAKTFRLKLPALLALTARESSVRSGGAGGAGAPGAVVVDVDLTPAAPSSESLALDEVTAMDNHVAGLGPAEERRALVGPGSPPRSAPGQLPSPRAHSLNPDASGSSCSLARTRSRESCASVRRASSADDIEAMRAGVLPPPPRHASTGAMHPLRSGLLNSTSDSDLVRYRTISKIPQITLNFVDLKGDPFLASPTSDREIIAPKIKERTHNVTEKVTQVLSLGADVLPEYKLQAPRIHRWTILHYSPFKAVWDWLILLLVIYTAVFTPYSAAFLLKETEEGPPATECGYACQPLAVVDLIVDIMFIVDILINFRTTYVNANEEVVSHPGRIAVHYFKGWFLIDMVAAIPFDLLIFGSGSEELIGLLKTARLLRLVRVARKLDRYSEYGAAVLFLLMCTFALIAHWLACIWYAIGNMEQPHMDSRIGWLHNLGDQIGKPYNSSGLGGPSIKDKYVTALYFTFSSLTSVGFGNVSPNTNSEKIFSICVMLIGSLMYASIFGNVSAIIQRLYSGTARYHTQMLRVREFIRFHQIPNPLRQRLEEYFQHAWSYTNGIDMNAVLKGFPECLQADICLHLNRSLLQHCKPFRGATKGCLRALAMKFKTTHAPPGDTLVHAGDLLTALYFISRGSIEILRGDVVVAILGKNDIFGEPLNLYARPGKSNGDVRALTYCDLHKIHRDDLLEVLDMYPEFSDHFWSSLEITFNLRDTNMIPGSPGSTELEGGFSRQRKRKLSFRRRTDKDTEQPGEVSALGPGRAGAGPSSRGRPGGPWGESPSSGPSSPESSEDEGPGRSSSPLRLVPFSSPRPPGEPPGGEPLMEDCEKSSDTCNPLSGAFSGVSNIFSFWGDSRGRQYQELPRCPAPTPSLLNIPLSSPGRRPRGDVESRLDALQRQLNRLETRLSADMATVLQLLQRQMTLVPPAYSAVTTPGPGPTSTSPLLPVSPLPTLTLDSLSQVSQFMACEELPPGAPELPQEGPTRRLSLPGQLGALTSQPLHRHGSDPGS
row,Structure (SMILES),"hERG current change (%, negative = inhibition) at 1uM [%]"
1,Cc1cc2c(cc1C)NC(c1ccccn1)C1=C(CC(C)(C)CC1=O)N2 (stereo not drawn),6.15
2,CCC(=O)Nc1ccc(OCc2nc3ccccc3s2)cc1,11.6
3,Nc1ccc(Nc2ccccc2)c(Cl)c1,8.89
4,COCCN(C(=O)C(F)(F)F)C(C(=O)NC1CCCCC1)c1ccco1 (stereo not drawn),9.42
5,O=S(=O)(c1cccs1)N1CCN(c2ccc(Cl)cc2)CC1,19.9
6,O=C(CSc1nnc(CNC(=O)c2ccccc2F)o1)NCc1ccccc1,-9.19
7,Cc1ccc(/C(O)=C2\C(=O)C(=O)N(C)C2c2ccccc2[N+](=O)[O-])cc1 (stereo not drawn),13.8
8,CC1=NC(C)(C)Cc2ccccc21.O=C(O)c1ccccc1O,23.5
9,O=C(NCCCN1CCCC1=O)c1ccc(Cl)c(NS(=O)(=O)c2ccc(F)cc2)c1,5.84
10,Cc1ccc(NC(=O)COC(=O)c2cc(=O)c3ccccc3o2)cc1F,14.7
11,CC(=O)c1ccc(NC(=O)CSc2nnc(-c3ccncc3)o2)cc1,-5.38
12,COc1ccc2nc(NC(=O)c3c(C)noc3C)sc2c1,-4.89
13,CCN(CC)CCCn1c(=S)[nH]c2cc(Cl)ccc2c1=O,-41.9
14,O=C(Nc1nc(-c2ccccc2)c(-c2ccccc2)s1)c1ccc(S(=O)(=O)N2CCCCC2)cc1,4.8
15,CC(=O)c1ccc(COC(=O)c2cc3ccccc3oc2=O)cc1,6.71
16,COc1cc(NC(=O)c2cc(Cl)nnc2Cl)cc(OC)c1OC,-2.82
17,COc1ccc(NC2=C(C(C)=O)C(c3ccc(N(C)C)cc3)C(C(C)=O)C(C)(O)C2)cc1 (stereo not drawn),10.2
18,CC(C)OC(=O)Nc1ccc2c(c1)N(C(=O)CCN(C)C)c1ccccc1CC2.Cl,3.73
19,CN(C)/C=C(/C(=O)c1ccc(Cl)cc1Cl)S(=O)(=O)c1ccc(Cl)cc1,1.51
20,CCCC[n+]1ccc(-c2nc3ccc([N+](=O)[O-])cc3[nH]2)cc1,-41.3
21,COc1ccc(-c2cc(C(=O)N(C)CC(=O)Nc3cccc(F)c3)c3ccccc3n2)cc1,10.3
22,Cc1ccccc1OCC(=O)NCCCNC(=O)c1ccncc1,6.96
23,O=c1[nH]c(=S)n(-c2ccc(Cl)cc2)c(O)c1/C=N/N1CCOCC1,-3.14
24,CCOCC(=O)Nc1nc2ccc(S(C)(=O)=O)cc2s1,2.73
25,CCOC(=O)c1cc(C#N)c(Oc2cccc(C(F)(F)F)c2)nc1-c1ccccc1,5.66
26,COc1ccc([N+](=O)[O-])cc1NC(=O)CCCOc1ccccc1,16.7
27,CC1(C(=O)Nc2cccc3ccccc23)CC1(Br)Br (stereo not drawn),7.75

row,Structure (SMILES),"hERG current change (%, negative = inhibition) at 1uM [%]"
1,CC(NC(=S)NNS(=O)(=O)c1ccc(C(C)(C)C)cc1)c1ccccc1 (stereo not drawn),4.82
2,Cc1cccnc1NC(=O)c1c(O)c2ccccc2n(C)c1=O,11.5
3,COc1ccc(C2NC(=O)c3ccccc3O2)cc1OC (stereo not drawn),8.88
4,Cc1ccc(C(=O)Oc2ccccc2N2C(=O)C3C4CCC(C4)C3C2=O)cc1 (stereo not drawn),11.6
5,CCOC(=O)c1ccc(S(=O)(=O)N2CCC(C(=O)NCc3ccccc3OC)CC2)cc1,13.6
6,Cc1cc(=O)n2nc(N3CCCC(C(=O)NCc4cccc(Br)c4)C3)sc2n1 (stereo not drawn),0.13
7,COc1ccc(OCCC(=O)N2CCCCC2)cc1,5.7
8,CN1CCN(C(=O)C2CCC(CNS(=O)(=O)c3cccc4cccnc34)CC2)CC1 (stereo not drawn),10.5
9,CCC(Oc1ccccc1)C(=O)NC1CCSC1=O (stereo not drawn),4.24
10,O=C(O)CCCC(=O)N1CCN(c2cccc(Cl)c2)CC1,4.93
11,N#Cc1cc2cc3c(cc2nc1SCC(=O)N1CCOCC1)OCO3,13.2
12,CCn1c(Cc2cccs2)nnc1SCC(=O)Nc1ccc(OC)c(OC)c1,15.4
13,Cc1ccc(-c2cc(C(=O)N/N=C/C=C/c3ccccc3)n[nH]2)o1,-2.86
14,C=CCOc1ccc(CNn2c(C)n[nH]c2=S)cc1OC,18.2
15,CC1CC(=O)C=C(O)C1C(=O)OC(C)(C)C (stereo not drawn),10.5
16,Cc1sc(NC(=O)Cn2[nH]c(=O)c3ccccc3c2=O)nc1-c1ccccc1,14.2
17,COC(=O)c1cc(NC(=O)CN2C(=O)C(=O)N(C3CCCC3)C2=O)cc(C(=O)OC)c1,8.68
18,Cc1ccc(O)c(CN2CCN(c3ccccc3)CC2)c1,-1.79
19,COc1ccc(C(CNC(=O)c2cccnc2SC)N2CCOCC2)cc1 (stereo not drawn),-3.94
20,O=C(N/N=C/c1c[nH]c2ccccc12)c1ccncc1,8.29
21,CC(=O)N1c2ccc(S(=O)(=O)N3CCC(C(=O)NCc4ccccc4Cl)CC3)cc2CC1C (stereo not drawn),12.7
22,Cc1ccn2cc(-c3ccc(Br)cc3)nc2c1,10.5
23,CC(Sc1ncnc2sc(-c3ccccc3)cc12)C(=O)N1CCNC1=O (stereo not drawn),4.6
24,CC(C)CC1=NC(C(F)(F)F)(C(F)(F)F)c2c(n(CC(C)C)c(=O)[nH]c2=O)N1,18.2
25,CCOC(=O)c1c2c3c(cccc3[nH]c1=O)C(=O)c1ccccc1-2,7.81
26,Nc1nc(-c2cccc(Br)c2)cs1,8.42
27,O=C(c1cccc([N+](=O)[O-])c1)n1nc(-c2ccccc2)nc1NCc1ccccc1,9.73
